According to PubChem BioAssay AID1476 (National Center for Advancing Translational Sciences (NCATS), 2009):
In all, about 200,000 compounds went through this assay and about 4,500 (2.2%) were called active. The shares of active, inactive and inconclusive entries below differ from those in the screen. The call rests on the fitted dose curve; in most records, active means well fitted inhibition curve with a large enough effect; inconclusive means small, poorly fitted or top-dose-only effect, or effect the other way; inactive means flat fitted curve, though single readings scatter. Potencies of inconclusive entries are doubtful fits and often do not repeat.

These compounds were tested against Cruzipain (Trypanosoma cruzi) (UniProt P25779) (assay: qHTS Assay for Promiscuous and Specific Inhibitors of Cruzain (without detergent)). Conditions: purified cruzain, Z-FR-AMC fluorescence, no detergent.
UniProt P25779, sequence (P25779 whole entry, looked up): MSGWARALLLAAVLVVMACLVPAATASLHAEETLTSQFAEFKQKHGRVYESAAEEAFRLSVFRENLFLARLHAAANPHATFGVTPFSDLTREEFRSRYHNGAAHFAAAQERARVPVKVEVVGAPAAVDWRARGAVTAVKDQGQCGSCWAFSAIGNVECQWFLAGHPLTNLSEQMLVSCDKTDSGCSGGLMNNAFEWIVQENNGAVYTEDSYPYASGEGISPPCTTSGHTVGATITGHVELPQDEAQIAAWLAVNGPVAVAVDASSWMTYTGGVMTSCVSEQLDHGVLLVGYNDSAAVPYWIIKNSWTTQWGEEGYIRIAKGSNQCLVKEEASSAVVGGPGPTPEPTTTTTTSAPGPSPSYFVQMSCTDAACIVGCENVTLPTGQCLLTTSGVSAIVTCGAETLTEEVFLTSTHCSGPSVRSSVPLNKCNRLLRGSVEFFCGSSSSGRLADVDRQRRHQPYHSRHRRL
Method in brief: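 Detergent-free condition (0.00005% Triton X-100) in acetate buffer pH 5.5 with DTT. 1.5 nM enzyme and compound were pre-mixed 15 min, then 2 uM Z-FR-AMC substrate added; reaction progress from fluorescence change between first and third reads (60 s).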
Further: nearly all actives have a fitted effect of over 40% in size.
Potency means the concentration at half of the fitted maximal effect; tags describe the fitted curve by direction and shape.
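Wherever max response, negative = inhibition is given: plate controls were enzyme without inhibitor for no effect and buffer without enzyme for full effect.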

Compound	Potency	max response, negative = inhibition
CCOC(=O)c1ccc(N2C(=O)c3n[nH]c(-c4ccco4)c3C2c2ccc(C)cc2)cc1 (configuration not stated)	inconclusive: 39.8 µM [inhibitor, single point]	–
Cc1nn(S(=O)(=O)c2ccc(Br)cc2)c(C)c1S(=O)(=O)N1CCCCCC1	–	inactive: 7.64%
O=C(N/N=C/c1c(Cl)cccc1Cl)c1ccccc1F	inconclusive: 39.8 µM [inhibitor, single point]	–
CCCC1(c2ccccc2)NC(=O)N(CC(=O)Nc2sc(-c3ccccc3)cc2C(=O)OCC)C1=O (configuration not stated)	active: 7.94 µM	–
COc1ccc(CC(=O)N2CCc3cc(OC)c(OC)cc3C2COc2cc(C)cc(C)c2)cc1OC (configuration not stated)	inconclusive: 10 µM [activator, partial curve]	–
COC(=O)c1c(N)sc2c1CCN(c1ncc(C(F)(F)F)cc1Cl)C2	inconclusive: 25.1 µM [inhibitor, single point]	–
O=c1c(CCc2ccccc2)nc2cnc(N3CCNCC3)nc2n1C1CC1	–	inactive: -11%
COC(=O)c1ccc(C(=O)OC)c(NC(=O)CN(C)Cc2ccc(Cl)c(Cl)c2)c1	inconclusive: 25.1 µM [activator, single point]	–
Cc1cc(C2=NNC(=NC3CC3)SC2)c(C)n1-c1ccccc1	inconclusive: 25.1 µM [inhibitor, single point]	–
Cc1ccc(CCNC(=O)c2ccc3c(Cl)c4c(nc3c2)CCCC4)cc1	–	inactive: -8.47%
O=C(NCCSc1c(-c2ccccc2)[nH]c2ccccc12)c1cc2ccccc2oc1=O	inconclusive: 31.6 µM [inhibitor, single point]	–
O=C(c1ccco1)N1CCN(C(=O)c2cnn3c2NC(c2cccs2)CC3C(F)(F)F)CC1 (configuration not stated)	inconclusive: 31.6 µM [activator, single point]	–
Cc1ccc2nc(/C(C#N)=C/c3ccc(-c4cccc([N+](=O)[O-])c4)o3)[nH]c2c1	inconclusive: 5.01 µM [inhibitor, full curve, poor fit]	–
CC(C)(CC(=O)N1CCN(c2ccc(Cl)cc2)CC1)CC1=NS(=O)(=O)c2ccccc2N1	inconclusive: 39.8 µM [activator, single point]	–
Cc1cc(C(=O)CN2C(=O)NC3(CCCc4ccccc43)C2=O)c(C)n1Cc1ccco1 (configuration not stated)	inconclusive: 39.8 µM [inhibitor, single point]	–
COc1ccc(CN(CC2CCCO2)C(=O)CN2C(=O)C(C)Oc3ccc(C)cc32)cc1OC (configuration not stated)	inconclusive: 39.8 µM [activator, single point]	–
CSc1ccc(/C=C/C(=O)c2ccc(NC(C)=O)cc2)cc1	inconclusive: 39.8 µM [inhibitor, single point]	–
